Among all 310,000 compounds or so, about 14,000 (4.5%) showed an effect of 50% or more. Effects have a minus sign here. The list shows a part of the results.
target: human ether-à-go-go-related gene (hERG) potassium channel (human, UniProt Q12809); experiment: primary screen, population patch clamp on CHO cells stably expressing hERG
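Note: peak tail current of the secondary pulse compared with the same well before compound.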

Sequence of human ether-à-go-go-related gene (hERG) potassium channel (Q12809 whole entry, looked up): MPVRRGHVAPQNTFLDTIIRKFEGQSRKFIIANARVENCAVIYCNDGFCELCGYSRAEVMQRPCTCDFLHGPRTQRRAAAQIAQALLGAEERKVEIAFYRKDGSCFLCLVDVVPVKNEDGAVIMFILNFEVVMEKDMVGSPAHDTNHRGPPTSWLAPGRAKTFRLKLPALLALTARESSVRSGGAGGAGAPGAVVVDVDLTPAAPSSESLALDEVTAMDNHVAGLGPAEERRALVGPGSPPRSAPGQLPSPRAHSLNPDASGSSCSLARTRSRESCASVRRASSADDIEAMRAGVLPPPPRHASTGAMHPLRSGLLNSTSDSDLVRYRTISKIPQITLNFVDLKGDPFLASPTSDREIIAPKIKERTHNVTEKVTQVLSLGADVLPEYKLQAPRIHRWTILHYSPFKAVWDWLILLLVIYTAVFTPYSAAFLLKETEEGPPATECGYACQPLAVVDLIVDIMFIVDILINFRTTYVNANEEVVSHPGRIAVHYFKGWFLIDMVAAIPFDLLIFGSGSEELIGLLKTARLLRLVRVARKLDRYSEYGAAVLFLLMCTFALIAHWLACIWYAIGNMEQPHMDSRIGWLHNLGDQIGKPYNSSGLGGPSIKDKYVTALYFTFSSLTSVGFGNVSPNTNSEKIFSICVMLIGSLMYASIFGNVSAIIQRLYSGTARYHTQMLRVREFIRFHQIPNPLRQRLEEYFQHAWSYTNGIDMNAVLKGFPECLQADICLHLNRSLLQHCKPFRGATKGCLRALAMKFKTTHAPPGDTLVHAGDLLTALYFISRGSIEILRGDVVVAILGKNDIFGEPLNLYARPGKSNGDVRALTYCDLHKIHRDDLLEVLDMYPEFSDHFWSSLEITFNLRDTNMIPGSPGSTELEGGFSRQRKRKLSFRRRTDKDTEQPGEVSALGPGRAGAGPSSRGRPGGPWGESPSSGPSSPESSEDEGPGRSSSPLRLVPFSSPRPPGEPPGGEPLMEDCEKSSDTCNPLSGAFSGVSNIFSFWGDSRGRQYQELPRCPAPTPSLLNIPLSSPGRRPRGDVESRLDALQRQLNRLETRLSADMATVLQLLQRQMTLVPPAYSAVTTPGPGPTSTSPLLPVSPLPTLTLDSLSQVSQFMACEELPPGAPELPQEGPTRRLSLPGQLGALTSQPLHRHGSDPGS

Point of comparison: `CCOC(=O)C(C)Oc1c(Br)cc(C2NC(=O)NC(C)=C2C(C)=O)cc1OCC` (stereo not drawn), “hERG current change (%, negative = inhibition) at 10uM” value 3.1%. Against it:
- COC(=O)c1c(NC(=O)c2ccoc2C)sc(C)c1C — lower, 2.34%
- O=C(NCCCCNC(=O)c1cccnc1Cl)c1cccnc1Cl — higher, 15.7%
- CCN1C(=O)NC2=C(C(=O)c3ccccc32)C1c1ccccc1F (stereo not drawn) — higher, 15.2%
- CC(C)C(=O)N1CCN(c2ccc(NC(=O)c3ccc4c(c3)OCCO4)cc2Cl)CC1 — lower, -15%
- COc1ccc(F)cc1CN1CCN(c2ncnc3scc(-c4ccccc4)c23)CC1 — lower, -41.6%
- CC(=O)c1c(O)cc(=O)n(-c2ccccc2)c1-c1cccc2ccccc12 — higher, 25.3%
- COc1ccccc1C1CC(=O)NC(SCC(=O)Nc2ccccc2)=C1C#N (stereo not drawn) — higher, 5.8%
- Cc1ccnc(NS(=O)(=O)c2ccc(NC(=O)Cc3cccs3)cc2)n1 — higher, 13.8%
- O=C(CCCN1C(=O)c2cccnc2C1=O)Nc1ccccc1F — higher, 28.3%
- COC(=O)c1cccnc1-n1c(=O)c2cccnc2n(Cc2cccc(OC)c2)c1=O — lower, -5.19%
- CCOC(=O)c1cnc(SCC(=O)Nc2ccc(N3CCOCC3)cc2)nc1N — lower, -0.979%
- Cc1ccc(S(=O)(=O)N2CCCc3cc(NC(=O)c4c(F)cccc4F)ccc32)cc1 — higher, 6.51%
- CCOC(=O)c1c(C)[nH]c(C(=O)OCc2ccccc2)c1C — higher, 11%
- CCOC(=O)c1c(NC(=O)CSc2nc3ccccc3s2)sc(C(C)=O)c1C — higher, 18.5%
- CCCN(CC(=O)Nc1ccccc1OC)C(=O)c1ccc(S(=O)(=O)Nc2ccccc2)cc1 — lower, -53.4%
- CC1CCN(C(=O)CCCC(=O)O)CC1 — higher, 18%
- O=C(COc1ccccc1C(=O)NCc1ccncc1)Nc1ccc(Br)cc1 — higher, 3.71%
- COc1ccc(N(CC(=O)Nc2cccnc2)S(=O)(=O)c2ccc(C)cc2)cc1Cl — lower, -16.9%
- CC1CN(c2nc3ccccc3nc2SCC(=O)Nc2cccc(C(F)(F)F)c2)CC(C)O1 (stereo not drawn) — higher, 12.1%
- COc1ccc(C2=NN(C(=O)CSc3ncccn3)C(c3ccc(C)cc3)C2)cc1 (stereo not drawn) — lower, 2.72%
- O=C(Nc1n[nH]c(C(F)(F)F)n1)c1cccs1 — higher, 4.63%
- CCCN1C(=O)c2ccccc2NC1c1ccc(OC)cc1OC (stereo not drawn) — lower, 1.63%
- O=C(NCc1ccco1)c1cc2n(n1)C(C(F)(F)F)CC(c1ccc(F)cc1)N2 (stereo not drawn) — lower, -4.65%
- CS(=O)(=O)c1ccc(S(=O)(=O)N2CCC(CO)(CCCc3ccccc3)CC2)cc1 — lower, -41.4%
- COc1ccc(C(CNC(=O)CNC(=O)c2cccc(Cl)c2)N2CCCC2)cc1 (stereo not drawn) — lower, -33.8%
- O=c1cc(-c2ccc(Cl)c(Cl)c2)[nH][nH]1 — higher, 20.4%
- O=C(N/N=C\c1ccco1)c1cncc(Br)c1 — higher, 12.3%
- C[C@H]1CC[C@]2(O[C@H](CCO)C[C@H](O)[C@H]2O)O1 — higher, 13.1%
- COc1ccc(C2(c3ccc(OC)cc3)NC(=O)N(CC(=O)Nc3ccc(OC(F)F)cc3)C2=O)cc1 — lower, -19.2%
- CCOC(=O)C1CCN(S(=O)(=O)c2ccc(Cl)cc2OC)CC1 — lower, -39.4%
- O=C(CN1CCN(c2ncccn2)CC1)N1CCc2ccccc21 — lower, 2.82%
- Cc1ccc(N2C(=O)CC(Cc3ccc(Cl)cc3)C2=O)cc1 (stereo not drawn) — lower, 2.42%
- CC(=O)Nc1ccc(Sc2ccccc2C(=O)Nc2ccc(F)cc2)cn1 — higher, 14.7%
- Cc1nn(CC#N)c(=O)n1N(C)c1ncc(C(F)(F)F)cc1Cl — lower, -1.82%
- NS(=O)(=O)c1ccc(NC(=O)CN2CCCN(S(=O)(=O)c3ccc(F)cc3)CC2)cc1 — lower, -17.9%
- Cc1cc(N2CCN(Cc3nc(-c4ccc(F)cc4)oc3C)CC2)cc(C)n1 — lower, -53.8%
- O=C(Nc1nc(SCc2ccc(F)cc2)ns1)c1ccco1 — lower, -39.6%
- Cc1ccc(C(C)NC(=O)C2CCCC2)cc1C (stereo not drawn) — lower, -9.17%
- COc1cc2nc(C)sc2cc1SC — lower, -19.6%
- O=C(Nc1ccccc1)c1ccc(-c2ccccc2Cl)o1 — higher, 18%
- COc1ccc(-c2nc(CS(=O)(=O)CC(=O)NC3CCC(C)CC3)c(C)o2)cc1 (stereo not drawn) — higher, 7.8%
- COc1ccc(NC(=O)/C(C#N)=C/c2ccc3c(c2)n(C)c(=O)n3C)cc1 — higher, 6.53%
- N#Cc1ccsc1NC(=O)COC(=O)c1ccc2ccccc2c1 — lower, -2.17%
- CC(/C=N/NC(=O)c1cccnc1)=C\c1ccccc1 — lower, -14.8%
- O=C(NCc1nc(-c2ccc(C(F)(F)F)cc2)no1)Nc1ccc(OC(F)(F)F)cc1 — higher, 12.9%
- Cc1cccnc1NC(=O)CCNC(=O)c1ccc(Br)cc1 — higher, 10.1%
- CC(C)(C)c1ccc(C(=O)NCCC(=O)NC2=NCCS2)cc1 — higher, 5.69%
- CC(C)COc1ccc(C(=O)N/C(=C\c2cccc([N+](=O)[O-])c2)C(=O)OC(C)C)cc1 — higher, 6.7%
- CCCC(=O)Nc1nnc(CC(=O)OCC)s1 — higher, 5.78%
- CC(C)COc1ccc(C(=O)OCCN2CCCCC2)cc1.Cl — lower, -35.6%
- O=C1c2cccnc2C(=O)N1C1CCCCC1 — higher, 9.65%
- CCOc1ccccc1NC(=O)c1ccccc1-c1ccccc1 — lower, -20.7%
- O=C(CSc1ccccc1)N1CCN(c2ccc(F)cc2)CC1 — higher, 10.8%
- O=C(c1ccco1)N1CCN(c2cc(=O)n(C3CCCCC3)c(=O)[nH]2)CC1 — lower, -14%
- CN1CCC(=C2c3ccccc3CCc3sccc32)CC1.O=C(O)/C=C\C(=O)O — lower, -29.4%
- CN(c1ccccc1)S(=O)(=O)c1cccc(C(=O)NCCc2c[nH]c3ccccc23)c1 — lower, -15%
- CNC(=O)COC(=O)c1cccc(S(=O)(=O)N2CCN(c3ccc(F)cc3)CC2)c1 — lower, -0.232%
- CC1(C)CC(=O)C(N=Nc2ccc(C(F)(F)F)cc2[N+](=O)[O-])=C(O)C1 — higher, 16.7%
- CC(C)(C)OC(=O)NC(Cc1ccccc1)C(=O)NC(CSC1CCCCO1)C(=O)NN (stereo not drawn) — higher, 11.5%
- O=C(Cc1ccsc1)NCC(c1ccco1)N1CCCCC1 (stereo not drawn) — lower, -15.5%
- CCOc1ccc(C2=C(C=C(C#N)C#N)C(c3ccccc3)c3ccccc3O2)cc1 (stereo not drawn) — lower, -5.72%
- O=C(NNC(=S)Nc1ccccc1)c1ccncc1 — higher, 23.1%
- CNC(=O)NNC(=O)c1nc(-c2ccccc2)c(C)o1 — higher, 17.3%
- O=c1c2ccccc2nc(-c2ccccc2)n1-c1ccccc1O — higher, 16.1%
- COc1ccc(-c2nc3ccccc3n2OC(=O)N(C)C)cc1 — lower, -2.4%
- O=c1c2ccccc2[nH]c2ccccc12 — higher, 11.3%
- CS(=O)(=O)N(CC(=O)NCCSCc1c(F)cccc1Cl)c1cccc([N+](=O)[O-])c1 — lower, -15.9%
- O=C(c1ccc(Cl)cc1)N1CCCCC(Cl)C1=O (stereo not drawn) — higher, 7.57%
- CC(=O)NC(=S)Nc1ccc(NC(=O)COc2ccc(Cl)cc2)cc1 — higher, 8.5%
- COc1ccc(C)cc1-n1nnnc1SCn1nnc2ccccc2c1=O — lower, 1.94%
- COc1cc(Nc2nc3ccccc3nc2NS(=O)(=O)c2ccc([N+](=O)[O-])cc2)cc(OC)c1OC — lower, -30.4%
- Cc1cc(N/N=C2\CC(C)CC(C)(C)C2)nc2ccccc12 (stereo not drawn) — lower, -7.04%
- COc1ccc(C2(c3ccc(OC)cc3)NC(=O)N(CC(=O)NC(C)C)C2=O)cc1 — lower, -2.58%
- O=S(=O)([O-])c1cc(O)c2c(O)c(N=Nc3cc(Cl)ccc3O)c(S(=O)(=O)[O-])cc2c1.[Na+] — higher, 9.45%
- O=C(C(NS(=O)(=O)c1cccc2nsnc12)c1ccccc1)N1CCN(c2ccccn2)CC1 (stereo not drawn) — lower, -64.8%
- Cc1ccc(-c2cc(C(F)F)n3ncc(C(=O)N4CCN5CCCC5C4)c3n2)cc1 (stereo not drawn) — lower, -33%
- N#Cc1c(-c2ccco2)c2c([nH]c1=S)CCCC2 — higher, 17.5%
- COc1ccc(-n2nc3cc(C)c(NC(C)=O)cc3n2)cc1 — higher, 9.45%
- Cc1nn(-c2cc(C(F)(F)F)ccn2)c(=O)o1 — higher, 22.8%
- O=C1S/C(=C\c2ccc(Cl)cc2)C(=O)N1CCn1cnnn1 — lower, -0.978%
- CCOC(=O)N1CCN(Cc2cc(=O)oc3ccc(Cl)cc23)CC1 — lower, -26.9%
- CCCNC(=O)N1[C@H]2CC[C@@H]1C(C(=O)OC)=C(c1ccc3ccccc3c1)C2 — lower, -3.59%
- Cc1ccc(-n2nnnc2SCc2ccccn2)cc1C — higher, 8.12%
- COc1ccc(Nc2cc(=O)n(-c3ccccc3)c3c2c(=O)n(C)c(=O)n3C)cc1 — higher, 12.9%
- O=C(COC(=O)CC1CC2CCC1C2)NC(=O)NCc1ccco1 (stereo not drawn) — lower, -4.89%
- CC1CN(S(=O)(=O)c2cccc(C(=O)Nc3cc(Cl)ccc3N3CCOCC3)c2)CC(C)O1 (stereo not drawn) — lower, -39.7%

Source: publication PMC4336329 (PLoS ONE, 2015)
